Measured values from US9072734B2, “Quaternary ammonium salt compounds” (Teijin Pharma Limited, priority 2009, dated 2015).
Some results were stated once for a whole list of compounds, not compound by compound. At least one structure is not confirmed: it was looked up by name or label, or the drawing left a doubt.

tested on: histamine-induced bronchoconstriction in guinea pigs; assay: Effects on histamine-induced bronchoconstriction in guinea pigs; format: in vivo, guinea pig; details: 6 hours after 25 μg/kg of compounds were administered

Row | SMILES | percentage of bronchoconstriction suppression with respect to the histamine stimulation [%]
1 | COc1cc(NC(=O)CCCc2ccc(-c3ccccc3)c(NC(=O)OC3CC[N+](C)(C)CC3)c2)c(Cl)cc1CNC[C@H](O)c1ccc(O)c2[nH]c(=O)ccc12.O=C([O-])C(F)(F)F [Example 18, 4-({[5-(3-{[2-chloro-4-({[(2R)-2-hydroxy-2-(8-hydroxy-2-oxo-1,2-dihydroquinolin-5-yl)ethyl]amino}methyl)-5-methoxyphenyl]carbamoyl}propyl)-2-phenylphenyl]carbamoyl}oxy)-1,1-dimethylpiperidin-1-ium trifluoroacetate] | ≥ 30
2 | C[N+]1(C)CCC(OC(=O)Nc2cc(CCCC(=O)Nc3ccc(CNC[C@H](O)c4ccc(O)c5[nH]c(=O)ccc45)cc3Cl)ccc2-c2ccccc2)CC1.O=C([O-])C(F)(F)F [Example 19, 4-({[5-(3-{[2-chloro-4-({[(2R)-2-hydroxy-2-(8-hydroxy-2-oxo-1,2-dihydroquinolin-5-yl)ethyl]amino}methyl)phenyl]carbamoyl}propyl)-2-phenylphenyl]carbamoyl}oxy)-1,1-dimethylpiperidin-1-ium trifluoroacetate] | ≥ 30
3 | COc1cc(NC(=O)CCCc2ccc(-c3ccccc3)c(NC(=O)OC3CC[N+](C)(C)CC3)c2)ccc1CNC[C@H](O)c1ccc(O)c2[nH]c(=O)ccc12.O=C([O-])C(F)(F)F [Example 20, 4-({[5-(3-{[4-({[(2R)-2-hydroxy-2-(8-hydroxy-2-oxo-1,2-dihydroquinolin-5-yl)ethyl]amino}methyl)-3-methoxyphenyl]carbamoyl}propyl)-2-phenylphenyl]carbamoyl}oxy)-1,1-dimethylpiperidin-1-ium trifluoroacetate] | ≥ 30
4 | C[N+]1(C)CCC(OC(=O)Nc2cc(CCCC(=O)Nc3ccc4cc(CNC[C@H](O)c5ccc(O)c6[nH]c(=O)ccc56)ccc4c3)ccc2-c2ccccc2)CC1.O=C([O-])C(F)(F)F [Example 23, 4-({[5-(3-{[6-({[(2R)-2-hydroxy-2-(8-hydroxy-2-oxo-1,2-dihydroquinolin-5-yl)ethyl]amino}methyl)naphthalen-2-yl]carbamoyl}propyl)-2-phenylphenyl]carbamoyl}oxy)-1,1-dimethylpiperidin-1-ium trifluoroacetate] | ≥ 30
5 | COc1cc(NC(=O)CCCc2ccc(-c3ccccc3)c(NC(=O)OC3CC[N+](C)(C)CC3)c2)c(Br)cc1CNC[C@H](O)c1ccc(O)c2[nH]c(=O)ccc12.O=C([O-])C(F)(F)F [Example 25, 4-({[5-(3-{[2-bromo-4-({[(2R)-2-hydroxy-2-(8-hydroxy-2-oxo-1,2-dihydroquinolin-5-yl)ethyl]amino}methyl)-5-methoxyphenyl]carbamoyl}propyl)-2-phenylphenyl]carbamoyl}oxy)-1,1-dimethylpiperidin-1-ium trifluoroacetate] | ≥ 30
6 | C[N+]1(C)[C@@H]2C[C@@H](OC(=O)Nc3cc(CCCC(=O)Nc4ccc(CNC[C@H](O)c5ccc(O)c6[nH]c(=O)ccc56)cc4)ccc3-c3ccccc3)C[C@H]1[C@@H]1O[C@@H]12.O=C([O-])C(F)(F)F [Example 33, (1R,2R,4S,5S,7S)-7-({[5-(3-{[4-({[(2R)-2-hydroxy-2-(8-hydroxy-2-oxo-1,2-dihydroquinolin-5-yl)ethyl]amino}methyl)phenyl]carbamoyl}propyl)-2-phenylphenyl]carbamoyl}oxy)-9,9-dimethyl-3-oxa-9-azatricyclo[3.3.1.0^2,4]nonan-9-ium trifluoroacetate] | ≥ 30
7 | C[N+]1(C)[C@@H]2CC(OC(=O)Nc3cc(CCCC(=O)Nc4ccc5cc(CNC[C@H](O)c6ccc(O)c7[nH]c(=O)ccc67)ccc5c4)ccc3-c3ccccc3)C[C@H]1[C@@H]1O[C@@H]12.O=C([O-])C(F)(F)F (stereo partly drawn) [Example 35, (1R,2R,4S,5S,7S)-7-({[5-(3-{[6-({[(2R)-2-hydroxy-2-(8-hydroxy-2-oxo-1,2-dihydroquinolin-5-yl)ethyl]amino}methyl)naphthalen-2-yl]carbamoyl}propyl)-2-phenylphenyl]carbamoyl}oxy)-9,9-dimethyl-3-oxa-9-azatricyclo[3.3.1.0^2,4]nonan-9-ium trifluoroacetate] | ≥ 30
8 | COc1cc(CNC[C@H](O)c2ccc(O)c3[nH]c(=O)ccc23)ccc1NC(=O)CCc1ccc(-c2ccccc2)c(NC(=O)O[C@@H]2C[C@@H]3[C@H]4O[C@H]4[C@H](C2)[N+]3(C)C)c1.O=C([O-])C(F)(F)F [Example 41, (1R,2R,4S,5S,7S)-7-({[5-(2-{[4-({[(2R)-2-hydroxy-2-(8-hydroxy-2-oxo-1,2-dihydroquinolin-5-yl)ethyl]amino}methyl)-2-methoxyphenyl]carbamoyl}ethyl)-2-phenylphenyl]carbamoyl}oxy)-9,9-dimethyl-3-oxa-9-azatricyclo[3.3.1.0^2,4]nonan-9-ium trifluoroacetate] | ≥ 30
9 | COc1cc(NC(=O)CCc2ccc(-c3ccccc3)c(NC(=O)O[C@@H]3C[C@@H]4[C@H]5O[C@H]5[C@H](C3)[N+]4(C)C)c2)ccc1CNC[C@H](O)c1ccc(O)c2[nH]c(=O)ccc12.O=C([O-])C(F)(F)F [Example 42, (1R,2R,4S,5S,7S)-7-({[5-(2-{[4-({[(2R)-2-hydroxy-2-(8-hydroxy-2-oxo-1,2-dihydroquinolin-5-yl)ethyl]amino}methyl)-3-methoxyphenyl]carbamoyl}ethyl)-2-phenylphenyl]carbamoyl}oxy)-9,9-dimethyl-3-oxa-9-azatricyclo[3.3.1.0^2,4]nonan-9-ium trifluoroacetate] | ≥ 30
10 | C[N+]1(C)[C@@H]2C[C@@H](OC(=O)Nc3ccc(CCCC(=O)Nc4ccc5cc(CNC[C@H](O)c6ccc(O)c7[nH]c(=O)ccc67)ccc5c4)cc3-c3ccccc3)C[C@H]1[C@@H]1O[C@@H]12.O=C([O-])C(F)(F)F [Example 56, (1R,2R,4S,5S,7S)-7-({[4-(3-{[6-({[(2R)-2-hydroxy-2-(8-hydroxy-2-oxo-1,2-dihydroquinolin-5-yl)ethyl]amino}methyl)naphthalen-2-yl]carbamoyl}propyl)-2-phenylphenyl]carbamoyl}oxy)-9,9-dimethyl-3-oxa-9-azatricyclo[3.3.1.0^2,4]nonan-9-ium trifluoroacetate] | ≥ 30
